Measurements: article PMC4336329 (PLoS ONE, 2015)
About 2,200 (0.71%) of roughly 310,000 compounds showed an effect of 50% or more. Effects have a minus sign here. The list shows a part of the results.

molecular target: human ether-à-go-go-related gene (hERG) potassium channel (human, UniProt Q12809); assay: primary screen, population patch clamp on CHO cells stably expressing hERG
Sequence (Q12809 whole entry, looked up): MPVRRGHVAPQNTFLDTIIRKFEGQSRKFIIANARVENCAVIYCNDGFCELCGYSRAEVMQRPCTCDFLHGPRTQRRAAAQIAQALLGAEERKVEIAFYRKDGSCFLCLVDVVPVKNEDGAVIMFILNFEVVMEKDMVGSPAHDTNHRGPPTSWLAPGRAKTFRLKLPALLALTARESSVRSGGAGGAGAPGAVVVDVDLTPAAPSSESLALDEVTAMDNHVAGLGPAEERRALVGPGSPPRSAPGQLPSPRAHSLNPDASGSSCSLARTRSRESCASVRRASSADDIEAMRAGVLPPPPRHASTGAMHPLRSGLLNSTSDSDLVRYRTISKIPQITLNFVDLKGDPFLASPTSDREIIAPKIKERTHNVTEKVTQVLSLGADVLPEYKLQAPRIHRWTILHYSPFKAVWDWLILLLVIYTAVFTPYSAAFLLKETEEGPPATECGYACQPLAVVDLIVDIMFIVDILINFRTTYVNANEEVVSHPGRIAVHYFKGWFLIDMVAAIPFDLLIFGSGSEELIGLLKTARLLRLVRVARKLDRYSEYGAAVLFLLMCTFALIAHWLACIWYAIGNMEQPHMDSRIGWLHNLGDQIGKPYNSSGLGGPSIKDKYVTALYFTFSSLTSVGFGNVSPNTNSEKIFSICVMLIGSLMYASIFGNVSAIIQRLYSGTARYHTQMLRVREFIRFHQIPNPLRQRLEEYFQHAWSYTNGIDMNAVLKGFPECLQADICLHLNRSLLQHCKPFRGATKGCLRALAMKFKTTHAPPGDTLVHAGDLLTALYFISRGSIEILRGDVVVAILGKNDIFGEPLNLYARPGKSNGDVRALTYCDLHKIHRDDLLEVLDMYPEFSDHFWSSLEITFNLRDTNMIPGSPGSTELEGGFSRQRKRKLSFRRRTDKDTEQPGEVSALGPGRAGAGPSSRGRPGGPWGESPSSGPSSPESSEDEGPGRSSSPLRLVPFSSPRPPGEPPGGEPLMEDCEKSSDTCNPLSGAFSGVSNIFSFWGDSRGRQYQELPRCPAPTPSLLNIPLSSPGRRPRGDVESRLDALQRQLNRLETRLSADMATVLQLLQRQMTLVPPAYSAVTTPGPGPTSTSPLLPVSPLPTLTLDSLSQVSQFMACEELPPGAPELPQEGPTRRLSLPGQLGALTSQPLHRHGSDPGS

| SMILES | hERG current change (%, negative = inhibition) at 1uM [%] |
| --- | --- |
| Cn1ccc(C(=O)Oc2ccc(C(=O)Nc3ccc(F)cc3F)cc2)n1 | 10.5 |
| Nc1nonc1-c1nc2ccccc2n1Cc1ccc(F)cc1Cl | 11.2 |
| Clc1ccccc1Nc1nc2ccccc2o1 | 12.2 |
| Cn1c(-c2ccc(C(=O)c3ccccc3)s2)nc2ccccc21 | 15.3 |
| Cc1cc2oc3ccc(NCCCn4ccnc4)cc3c(=O)c2cc1C | 11.4 |
| O=C(CN1C(=O)C2CCCCC2C1=O)Nc1nc(-c2ccccn2)cs1 (centres unmarked) | -1.29 |
| CCOC(=O)c1c(NC(=O)C2=C(C)NC(=S)NC2c2ccc(F)cc2F)sc(C)c1C (centres unmarked) | 3.2 |
| CC1CCN(C(=O)COC(=O)c2cc([N+](=O)[O-])ccc2N2CCOCC2)CC1 | 4.74 |
| CCOC(=O)c1ccc(NS(=O)(=O)N2CCCCCC2)cc1 | 0.402 |
| COc1ccc(NC(=S)Nc2ccc3cn[nH]c3c2)cc1 | -5.74 |
| CC1(C(=O)O)CCC(C(=O)Nc2ccc(Cl)c(Cl)c2)C1(C)C (centres unmarked) | 13.9 |
| CSc1ccc(-c2sc(Nc3ccccc3)n[n+]2-c2ccc(F)cc2)cc1.[Cl-] | 6.79 |
| CCOC(=O)c1ccc(S(=O)(=O)n2c(CN3CCCCC3)nc3ccccc32)cc1 | 15.9 |
| CC(=O)N1CCCc2cc(S(=O)(=O)N3CCCC(C(=O)Nc4ccccc4C)C3)ccc21 (centres unmarked) | 16 |
| Cc1cccc(C)c1NC(=O)CN(C)C(=O)COc1cccc2c1OC(C)(C)C2 | 12.3 |
| Cc1ccc(C(=O)CC2(O)C(=O)N(CN3CCOCC3)c3ccccc32)cc1 (centres unmarked) | -0.566 |
| O=c1oc2ccccc2c2c1ncn2CCN1CCOCC1 | 1.44 |
| O=C(Cc1cccs1)Nc1ccc([N+](=O)[O-])cc1 | 19.9 |
| Br.Cn1ccnc1SCC(=O)c1ccc(O)cc1 | 13 |
| O=C(COC(=O)CN1C(=O)NC2(CCCC2)C1=O)Nc1ccccc1C(F)(F)F | 12.5 |
| CCCn1c(O)c(N=NC(=O)CNC(=O)c2ccncc2)c2ccccc21 | 2.55 |
| Cc1nnc(SCc2ccon2)n1-c1ccccc1 | 14.2 |

| SMILES | hERG current change (%, negative = inhibition) at 1uM [%] |
| --- | --- |
| C=CCN1c2ccc(Br)cc2C(=O)CS1(=O)=O | 13.1 |
| CSc1ccccc1C(=O)NCc1ccc2c(c1)OCO2 | -11.3 |
| CNC(=O)COC(=O)C1CCN(S(=O)(=O)c2ccc3c(c2)OCCO3)CC1 | 16.9 |
| CCOc1ccc(Cl)cc1/C=N/NC(N)=O | 7.89 |
| Cc1ccc(C)c(NC(=O)CN(C)C(=O)c2cc(-c3cccs3)nn2-c2ccccc2)c1 | -0.477 |
| CN(C)CCCNC(=O)c1cc(C(=O)C2CCCCC2)c[nH]1 | 4.7 |
| O=C(O)C(=O)O.c1ccc(COc2ccc(OCCN3CCCC3)cc2)cc1 | -33 |
| CCN(CC)CCNC(=O)Cc1nn(CC)c(=O)c2ccccc12.Cl | 0.738 |
| Cc1ccc(NC(=O)COc2cccc3c2OC(C)(C)C3)c(O)c1 | 1.98 |
| CCN1C=C(Cc2ccccc2C)C2=C(C1)C(c1ccccc1C)C(C#N)=C(N)O2.CCO (centres unmarked) | 7.42 |
| Cc1ccc(C(=O)NC(=S)NCc2ccccc2)cc1 | 9.22 |
| O=C(CCc1nc2ccccc2s1)NC1CCOC1=O (centres unmarked) | 9.91 |
| C/C(CC(=O)Nc1cc(C)ccn1)=N\NC(=O)c1cccc(C)c1O | 9.51 |
| CCC(C)[C@H]1CN=C(N)N1CCc1cc(C(F)(F)F)cc(C(F)(F)F)c1 (some centres unmarked) | 9.54 |
| O=C(O)c1ccc(/C=N/Nc2nnnn2-c2ccccc2)cc1 | 17.3 |
| O=C(Nc1ccccc1C(=O)O)/C(=C/c1ccc([N+](=O)[O-])cc1)NC(=O)c1ccc(Br)o1 | 4.01 |
| Cc1ccc(S(=O)(=O)Nc2ccccc2F)cc1C(=O)N1CCN(c2ccccc2O)CC1 | 1.37 |
| O=C(CN1CCCC1)N1CCCc2c1c(=O)oc1ccc(OCc3ccccc3)cc21 | -34.1 |
| O=C(Nc1nccs1)c1cccc(NC(=O)C(F)(F)F)c1 | -5.99 |
| Cc1ccc(C(=O)Nc2cccc(C(F)(F)F)c2)cc1Nc1ncnc2nc[nH]c12 | -4.34 |
| OC[C@@H]1CCCN1Cc1cn(-c2ccccc2)nc1-c1ccc2c(c1)OCO2 | 4.91 |
| Cc1cc(C)c2[nH]c(=O)c(C(c3nnnn3C(C)(C)C)N(Cc3ccco3)CC3CCCO3)cc2c1 (centres unmarked) | 14.6 |
